Assay results published in PubChem BioAssay AID485344 (National Center for Advancing Translational Sciences (NCATS), 2010).
The whole screen tested about 340,000 compounds, of which about 6,900 (2%) were called active. No stated cut-off is given here; in the data, active means inhibition above about 30%; inactive means below that, where a call was filed. This is a selection; strong and weak results do not stand in their true shares. Entries without a call were filed so in the source.
Further: 0% is about no effect.

The compounds below were run against D(2) dopamine receptor (Homo sapiens) (UniProt P14416) (assay: HTS Assay for Allosteric Antagonists of the Human D2 Dopamine Receptor: Primary Screen for Antagonists). Conditions: HEK293 TREx D2 cells, calcium flux, dopamine EC80; at 10 µM; stronger effect = higher value.
Sequence of UniProt P14416 (P14416 whole entry, looked up): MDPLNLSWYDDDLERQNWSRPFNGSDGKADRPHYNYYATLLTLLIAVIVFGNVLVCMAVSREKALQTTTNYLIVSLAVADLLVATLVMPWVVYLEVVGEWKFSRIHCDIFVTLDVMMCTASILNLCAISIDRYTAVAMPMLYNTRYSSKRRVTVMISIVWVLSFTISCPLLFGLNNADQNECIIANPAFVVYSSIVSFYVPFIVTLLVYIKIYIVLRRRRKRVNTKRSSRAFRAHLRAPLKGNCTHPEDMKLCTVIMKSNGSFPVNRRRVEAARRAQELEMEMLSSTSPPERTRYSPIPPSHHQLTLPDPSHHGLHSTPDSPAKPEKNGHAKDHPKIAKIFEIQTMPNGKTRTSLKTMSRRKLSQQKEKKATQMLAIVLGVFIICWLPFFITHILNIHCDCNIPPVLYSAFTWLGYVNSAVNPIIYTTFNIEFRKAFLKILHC
How it was run: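 Tetracycline-induced HEK293 TREx cells expressing D2 receptor forced-coupled to calcium signalling, loaded with no-wash calcium dye. Compounds added and calcium flux read 180 s, then dopamine added at EC80 and read a further 180 s.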
For Cc1ccc(C)c(CN2CCN(c3ncccn3)CC2)c1, the inhibition was active: 59.8%. Work on COc1cccc(Nc2sc(C(=O)c3ccc(Cl)cc3)c(N)c2C(=O)NCCc2ccc(OC)c(OC)c2)c1 yielded an inhibition of -13.5%. In the case of CCOc1ccc2c(c1)c(=O)c(C(=O)c1ccc(C)cc1)cn2Cc1ccccc1OC, the inhibition is reported as 21.8%. Work on CCOc1ccccc1NC(=O)CN1C(=O)C2(SCC(=O)N2c2ccc(C)cc2)c2ccccc21 (stereo unspecified) yielded an inhibition of -3.79%. For CC(C)c1ccc(NC(=O)Cn2c(=O)n(Cc3nc(-c4ccccc4)no3)c(=O)c3cc4c(cc32)OCO4)cc1, the inhibition was 6.8%. CC(=O)c1cccc(NC(=O)N2CCC(CN3CCCCC3)CC2)c1 was tested, and the inhibition was -14.4%. Cc1ccc(-n2ncc3c(=O)n(Cc4ccccc4C)cnc32)cc1C was tested, and the inhibition was 4.64%. In the case of Cc1cc(C)c(CN2C(=O)c3ccccc3S(=O)(=O)c3ccc(C(=O)OCC4CCCO4)cc32)c(C)c1 (stereo unspecified), the inhibition is reported as 4.59%. CCS(=O)(=O)c1ncc(Cl)c(C(=O)N(Cc2ccccc2)c2ccc(OC)cc2)n1 was tested, and the inhibition was 12.5%. With O=C(Cc1ccc(Cl)cc1)Nc1ccc2nn(-c3ccccc3)nc2c1 the inhibition was 7.38%. CC(C)CCNc1ncnc2c1cnn2-c1cccc(Cl)c1 gave an inhibition of 9.82%. Compound Cc1ccc(-n2c(SCC(=O)Nc3c(C)cccc3C)nc(O)c(C)c2=O)cc1 has an inhibition of -7.58%. With COCCNC(=O)C(=O)NCC(c1cccnc1)N1CCN(c2ccccc2)CC1 (stereo unspecified) the inhibition was 21.6%. For CC(C)N(Cc1nc(-c2ccccc2)no1)C(=O)c1ccc2c(c1)OCO2, the inhibition was active: 31.4%. COc1ccc(-n2cc(-c3ccc4c(c3)OCO4)n(CC(=O)Nc3cccc(C)c3)c2=O)cc1 showed an inhibition of 22.3%. Compound O=C(CC1N=C2c3ccccc3N=C(SCC(=O)Nc3ccc(F)cc3)N2C1=O)NCc1ccc2c(c1)OCO2 (stereo unspecified) has an inhibition of 11.8%. COc1cccc(-c2n[nH]c3c2C(c2ccccn2)N(C)C3=O)c1 (stereo unspecified) showed an inhibition of -1.22%. COc1ccc(NC(=O)CCN2CCN(c3ccc(F)cc3)CC2)cc1 was tested, and the inhibition was active: 76.8%. Compound Cc1cccc(NC(=O)Cn2cc(S(=O)(=O)Cc3ccccc3Cl)c3ccccc32)c1 has an inhibition of -5.16%. Compound Cc1cc(C)n(C(C)CC(=O)Nc2ccc(C)c(F)c2)n1 (stereo unspecified) has an inhibition of 13%. For Cc1ccccc1Cn1c(SCc2ccc(C(=O)NCCc3ccccc3)cc2)nc2ccncc21, the inhibition was 9.83%. CSc1ncc(Cl)c(C(=O)N(Cc2ccc(C(C)C)cc2)C2CCS(=O)(=O)C2)n1 (stereo unspecified) showed an inhibition of -2.71%. CCn1c(=O)c2sccc2n2c(CCCC(=O)Nc3ccc(OC)c(OC)c3)nnc12 was tested, and the inhibition was 4.25%. In the case of O=C(c1ccc(Cn2c(=S)[nH]c3ccccc3c2=O)cc1)N1CCN(c2ccccn2)CC1, the inhibition is reported as active: 32.8%. Work on CC(Nc1oc(-c2ccc(COc3ccc(Cl)cc3)o2)nc1C#N)c1ccccc1 (stereo unspecified) yielded an inhibition of -6%. Work on CCN(CC)CCCNC(=O)CN1C(=O)COc2ccc(S(=O)(=O)N3CCC(C)CC3)cc21 yielded an inhibition of -1.41%.
